Laboratory results: patent US10800791B2, “Triazole ACC inhibitors and uses thereof” (Gilead Apollo, LLC, priority 2015, dated 2020)

Assays:
[1] = tested on: C. krusei; assay: Antifungal Activity Assay (broth microtiter MIC), C. krusei; type: cell-based, Candida krusei; details: Pichia kudriavzevii, ATCC6258, 48 h, ATCC 6258, 3 replicates, MIC recorded at 48 h, read-out: MIC, C. krusei ATCC 6258
Description: (§1) Compounds of the present invention were evaluated in an Antifungal Activity Assay. An exemplary procedure for the assay, which measures the susceptibility of various Candida species to antifungal compounds, follows. Compounds to be tested (including fluconazole and amphotericin B) were dissolved in DMSO to obtain a solution having a concentration of 1 mg/mL. These stock solutions were sterile filtered using a 0.22 um nylon syringe filter, then diluted in sterile water to achieve a final concentration of 128 μg/mL.
(§2) All species were grown from frozen stock by directly plating on to freshly prepared Sabouraud Dextrose agar (BD, Difco) and incubated overnight in ambient air at 35° C. for 24 h. A direct suspension was prepared in RPMI 1640+MOPS (Lonza, Biowhittaker) by taking individual colonies from the overnight cultures using sterile swabs soaked in sterile saline. The concentration of the suspension was determined using pre-determined standard curves. These suspensions were then diluted down to 5×10^3 CFU/mL to achieve a final concentration of 2.5×10^3 CFU/mL once added to the microtiter plate as per CLSI guidelines (M27-A3, Vol. 28 No. 14).
(§3) Broth microtiter MIC challenge plates were prepared following CLSI guidelines (M27-A3, Vol. 28 No. 14). The original CLSI guidelines focused on reading Candida MICs after 48 h of incubation. As reading after only 24 h offers a clear advantage of patient care, QC limits are being established for all drugs at 24 h. That being said there are no known interpretive breakpoints for amphotericin B at 24 h and the current fluconazole interpretive breakpoints are based on a 48 h reading. The MICs for the test compounds were recorded at 48 h. All MIC determinations were achieved by visually comparing the growth found in the antibiotic challenged wells to that of the growth control.

[2] = tested on: Collectotrichum graminicola (Cg); assay: Growth inhibition assay of fungal pathogens, Cg; type: cell-based; details: 48 h, Collectotrichum graminicola, read-out: Concentration at 90% Inhibition Cg
Description: (§4) Compounds of the present invention were evaluated in a growth inhibition assay to determine the ability to control the growth of fungal pathogens, such as Botrtyis cinerea (Bc), Collectotrichum graminicola (Cg), Diplodia maydis (Dm), Fusarium moniliforme (Fm), Fusarium virguliforme (Fv), Phytophthora capsici (Pc), Rhizoctonia solani (Rs), and Septoria tritici (St).
(§5) Compounds to be tested were dissolved in DMSO at 2.5 mg/ml to produce compound stock solutions (“stocks”). Stocks were diluted with DMSO by a five-fold dilution in a 96-well stock plate, and two sets of final concentrations of 50, 10, and 2 ppm or 2, 0.4, and 0.08 ppm were obtained in vitro. A set of positive controls was also prepared, with various concentrations of Soraphen (2, 0.4, and 0.08 ppm), Metalaxyl (1.1, 0.22, and 0.04 ppm), and Metconazole (2, 0.4, and 0.08 ppm or 0.2, 0.04, and 0.008 ppm) after the five-fold dilutions. Negative controls on each plate included 2% DMSO, water, and a blank (media+2% DMSO).
(§6) Fungal spores were isolated from previously sub-cultured plates of Botrtyis cinerea (Bc), Collectotrichum graminicola (Cg), Diplodia maydis (Dm), Fusarium moniliforme (Fm), Fusarium virguliforme (Fv), Phytophthora capsici (Pc), and Septoria tritici (St). The isolated spores were diluted to individual concentrations with a 17% V8 liquid media. For Rhizoctonia solani (Rs) and Pythium irregulare, 1.5 mm mycelial plugs were used in place of spores and/4 Potato Dextrose Broth (PDB) was used for dilution. The spore concentrations and plug sizes were based on growth curves generated at 48 hours for each pathogen.
(§7) In a second 96-well plate, the spores or mycelial plugs, media, diluted compound solutions, and controls were combined. Once the compound was added, a true final concentration of compound in each well was measured by an OD600 reading, which adjusted for any compound precipitation that might have occurred in the well. Plate readings were repeated at both 24 and 48 hours. The blank negative control was used as a background subtraction. Additional visual ratings were performed at both 24 and 48 hours for checking on precipitation and confirming efficacy. Visual and OD600 ratings of the compounds at 48 hours were compared to the 2% DMSO negative control, and the percent of pathogen growth inhibition was determined based on those values.

[3] = target: fungal (fACC2) (UniProt Q00955); details: read-out: fACC2 (in vitro ACC2 Inhibition Assay, IC50), ADP-Glo, 5 nM ACC2, 20 μM ATP, 20 μM acetyl-CoA
Sequence of UniProt Q00955 (Q00955 whole entry): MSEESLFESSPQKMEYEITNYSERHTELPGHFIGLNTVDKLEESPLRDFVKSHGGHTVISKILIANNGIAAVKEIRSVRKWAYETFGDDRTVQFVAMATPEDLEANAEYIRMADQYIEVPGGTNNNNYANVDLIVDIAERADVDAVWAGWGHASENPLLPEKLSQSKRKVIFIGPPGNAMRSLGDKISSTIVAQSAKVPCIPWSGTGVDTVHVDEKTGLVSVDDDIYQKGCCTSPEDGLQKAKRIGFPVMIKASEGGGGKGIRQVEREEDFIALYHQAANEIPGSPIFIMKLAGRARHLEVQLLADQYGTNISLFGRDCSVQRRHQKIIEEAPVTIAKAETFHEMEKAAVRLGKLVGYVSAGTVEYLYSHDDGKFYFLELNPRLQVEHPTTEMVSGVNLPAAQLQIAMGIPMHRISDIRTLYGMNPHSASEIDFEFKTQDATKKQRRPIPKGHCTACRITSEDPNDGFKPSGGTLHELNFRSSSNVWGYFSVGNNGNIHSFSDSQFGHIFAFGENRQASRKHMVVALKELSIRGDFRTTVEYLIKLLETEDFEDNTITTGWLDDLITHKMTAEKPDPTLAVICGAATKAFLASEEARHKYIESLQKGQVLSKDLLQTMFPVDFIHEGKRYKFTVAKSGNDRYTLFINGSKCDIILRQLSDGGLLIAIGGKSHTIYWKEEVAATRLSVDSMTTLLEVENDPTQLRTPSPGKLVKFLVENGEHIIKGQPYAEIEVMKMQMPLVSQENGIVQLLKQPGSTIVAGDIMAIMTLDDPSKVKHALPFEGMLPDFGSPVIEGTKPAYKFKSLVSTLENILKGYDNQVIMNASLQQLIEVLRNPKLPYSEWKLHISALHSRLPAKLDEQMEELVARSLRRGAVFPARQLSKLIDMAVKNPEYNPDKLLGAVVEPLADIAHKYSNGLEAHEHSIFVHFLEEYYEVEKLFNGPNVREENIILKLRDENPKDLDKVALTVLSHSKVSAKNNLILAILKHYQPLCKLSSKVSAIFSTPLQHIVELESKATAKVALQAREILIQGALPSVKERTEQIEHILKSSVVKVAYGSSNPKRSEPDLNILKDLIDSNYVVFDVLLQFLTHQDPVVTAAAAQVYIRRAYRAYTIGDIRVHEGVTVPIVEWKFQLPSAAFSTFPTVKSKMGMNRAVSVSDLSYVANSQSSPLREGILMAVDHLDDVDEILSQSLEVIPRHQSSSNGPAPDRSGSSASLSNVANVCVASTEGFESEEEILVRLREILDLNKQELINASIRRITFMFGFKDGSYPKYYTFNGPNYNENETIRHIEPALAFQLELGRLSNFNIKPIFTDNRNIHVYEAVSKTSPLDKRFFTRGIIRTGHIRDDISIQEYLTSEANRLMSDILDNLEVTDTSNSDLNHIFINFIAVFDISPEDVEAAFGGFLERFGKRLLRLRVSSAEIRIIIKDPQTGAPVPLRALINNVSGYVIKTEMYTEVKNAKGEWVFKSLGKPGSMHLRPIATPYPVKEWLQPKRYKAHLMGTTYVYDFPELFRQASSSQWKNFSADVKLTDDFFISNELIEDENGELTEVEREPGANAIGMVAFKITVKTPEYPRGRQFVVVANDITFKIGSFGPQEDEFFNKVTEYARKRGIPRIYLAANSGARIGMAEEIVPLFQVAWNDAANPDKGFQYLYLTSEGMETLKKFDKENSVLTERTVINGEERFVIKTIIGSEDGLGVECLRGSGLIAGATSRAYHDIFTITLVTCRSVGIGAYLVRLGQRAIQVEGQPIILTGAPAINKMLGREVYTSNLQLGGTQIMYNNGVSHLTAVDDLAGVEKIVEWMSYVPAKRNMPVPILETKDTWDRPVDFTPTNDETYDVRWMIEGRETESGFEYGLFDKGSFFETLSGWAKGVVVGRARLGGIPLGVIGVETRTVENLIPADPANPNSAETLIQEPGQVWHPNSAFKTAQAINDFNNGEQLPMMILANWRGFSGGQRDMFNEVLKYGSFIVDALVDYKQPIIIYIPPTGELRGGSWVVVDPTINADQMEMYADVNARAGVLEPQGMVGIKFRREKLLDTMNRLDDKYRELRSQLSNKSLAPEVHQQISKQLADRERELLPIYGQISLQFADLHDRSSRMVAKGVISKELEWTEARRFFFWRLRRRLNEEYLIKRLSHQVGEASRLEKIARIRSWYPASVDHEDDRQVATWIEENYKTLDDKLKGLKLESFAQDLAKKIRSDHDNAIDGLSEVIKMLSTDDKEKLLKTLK

[4] = tested on: Fusarium virguliforme (Fv); assay: Growth inhibition assay of fungal pathogens, Fv; type: cell-based; details: 48 h, read-out: Concentration at 90% Inhibition Fv
Description: as §4, §5, §6, §7

[5] = tested on: Botrtyis cinerea (Bc); assay: Growth inhibition assay of fungal pathogens, Bc; type: cell-based; details: 48 h, Botrtyis cinerea, read-out: Concentration at 90% Inhibition Bc
Description: as §4, §5, §6, §7

[6] = tested on: Phytophthora capsici (Pc); assay: Growth inhibition assay of fungal pathogens, Pc; type: cell-based; details: 48 h, read-out: Concentration at 90% Inhibition Pc
Description: as §4, §5, §6, §7

[7] = tested on: C. albicans; assay: Antifungal Activity Assay (broth microtiter MIC), C. albicans; type: cell-based; details: Candida albicans, ATCC90028, 48 h, ATCC 90028, 3 replicates, MIC recorded at 48 h, read-out: MIC, C. albicans ATCC 90028
Description: as §1, §2, §3

[8] = tested on: Septoria tritici (St); assay: Growth inhibition assay of fungal pathogens, St; type: cell-based; details: Zymoseptoria tritici, 48 h, Septoria tritici, read-out: Concentration at 90% Inhibition St
Description: as §4, §5, §6, §7

[9] = tested on: C. parapsilosis; assay: Antifungal Activity Assay (broth microtiter MIC), C. parapsilosis; type: cell-based, Candida parapsilosis; details: Lodderomyces parapsilosis, ATCC22019, 48 h, ATCC 22019, 3 replicates, MIC recorded at 48 h, read-out: MIC, C. parapsilosis ATCC 22019
Description: as §1, §2, §3

[10] = tested on: Diplodia maydis (Dm); assay: Growth inhibition assay of fungal pathogens, Dm; type: cell-based; details: Stenocarpella maydis, 48 h, Diplodia maydis, read-out: Concentration at 90% Inhibition Dm
Description: as §4, §5, §6, §7

[11] = tested on: Fusarium moniliforme (Fm); assay: Growth inhibition assay of fungal pathogens, Fm; type: cell-based; details: Fusarium verticillioides, 48 h, Fusarium moniliforme, read-out: Concentration at 90% Inhibition Fm
Description: as §4, §5, §6, §7

[12] = target: human (hACC2) (Homo sapiens, UniProt O00763); assay: In vitro ACC inhibition assay (ADP-Glo), hACC2; type: biochemical; details: 5 nM ACC2, 20 μM ATP, 20 μM acetyl-CoA
Sequence of UniProt O00763 (O00763 whole entry): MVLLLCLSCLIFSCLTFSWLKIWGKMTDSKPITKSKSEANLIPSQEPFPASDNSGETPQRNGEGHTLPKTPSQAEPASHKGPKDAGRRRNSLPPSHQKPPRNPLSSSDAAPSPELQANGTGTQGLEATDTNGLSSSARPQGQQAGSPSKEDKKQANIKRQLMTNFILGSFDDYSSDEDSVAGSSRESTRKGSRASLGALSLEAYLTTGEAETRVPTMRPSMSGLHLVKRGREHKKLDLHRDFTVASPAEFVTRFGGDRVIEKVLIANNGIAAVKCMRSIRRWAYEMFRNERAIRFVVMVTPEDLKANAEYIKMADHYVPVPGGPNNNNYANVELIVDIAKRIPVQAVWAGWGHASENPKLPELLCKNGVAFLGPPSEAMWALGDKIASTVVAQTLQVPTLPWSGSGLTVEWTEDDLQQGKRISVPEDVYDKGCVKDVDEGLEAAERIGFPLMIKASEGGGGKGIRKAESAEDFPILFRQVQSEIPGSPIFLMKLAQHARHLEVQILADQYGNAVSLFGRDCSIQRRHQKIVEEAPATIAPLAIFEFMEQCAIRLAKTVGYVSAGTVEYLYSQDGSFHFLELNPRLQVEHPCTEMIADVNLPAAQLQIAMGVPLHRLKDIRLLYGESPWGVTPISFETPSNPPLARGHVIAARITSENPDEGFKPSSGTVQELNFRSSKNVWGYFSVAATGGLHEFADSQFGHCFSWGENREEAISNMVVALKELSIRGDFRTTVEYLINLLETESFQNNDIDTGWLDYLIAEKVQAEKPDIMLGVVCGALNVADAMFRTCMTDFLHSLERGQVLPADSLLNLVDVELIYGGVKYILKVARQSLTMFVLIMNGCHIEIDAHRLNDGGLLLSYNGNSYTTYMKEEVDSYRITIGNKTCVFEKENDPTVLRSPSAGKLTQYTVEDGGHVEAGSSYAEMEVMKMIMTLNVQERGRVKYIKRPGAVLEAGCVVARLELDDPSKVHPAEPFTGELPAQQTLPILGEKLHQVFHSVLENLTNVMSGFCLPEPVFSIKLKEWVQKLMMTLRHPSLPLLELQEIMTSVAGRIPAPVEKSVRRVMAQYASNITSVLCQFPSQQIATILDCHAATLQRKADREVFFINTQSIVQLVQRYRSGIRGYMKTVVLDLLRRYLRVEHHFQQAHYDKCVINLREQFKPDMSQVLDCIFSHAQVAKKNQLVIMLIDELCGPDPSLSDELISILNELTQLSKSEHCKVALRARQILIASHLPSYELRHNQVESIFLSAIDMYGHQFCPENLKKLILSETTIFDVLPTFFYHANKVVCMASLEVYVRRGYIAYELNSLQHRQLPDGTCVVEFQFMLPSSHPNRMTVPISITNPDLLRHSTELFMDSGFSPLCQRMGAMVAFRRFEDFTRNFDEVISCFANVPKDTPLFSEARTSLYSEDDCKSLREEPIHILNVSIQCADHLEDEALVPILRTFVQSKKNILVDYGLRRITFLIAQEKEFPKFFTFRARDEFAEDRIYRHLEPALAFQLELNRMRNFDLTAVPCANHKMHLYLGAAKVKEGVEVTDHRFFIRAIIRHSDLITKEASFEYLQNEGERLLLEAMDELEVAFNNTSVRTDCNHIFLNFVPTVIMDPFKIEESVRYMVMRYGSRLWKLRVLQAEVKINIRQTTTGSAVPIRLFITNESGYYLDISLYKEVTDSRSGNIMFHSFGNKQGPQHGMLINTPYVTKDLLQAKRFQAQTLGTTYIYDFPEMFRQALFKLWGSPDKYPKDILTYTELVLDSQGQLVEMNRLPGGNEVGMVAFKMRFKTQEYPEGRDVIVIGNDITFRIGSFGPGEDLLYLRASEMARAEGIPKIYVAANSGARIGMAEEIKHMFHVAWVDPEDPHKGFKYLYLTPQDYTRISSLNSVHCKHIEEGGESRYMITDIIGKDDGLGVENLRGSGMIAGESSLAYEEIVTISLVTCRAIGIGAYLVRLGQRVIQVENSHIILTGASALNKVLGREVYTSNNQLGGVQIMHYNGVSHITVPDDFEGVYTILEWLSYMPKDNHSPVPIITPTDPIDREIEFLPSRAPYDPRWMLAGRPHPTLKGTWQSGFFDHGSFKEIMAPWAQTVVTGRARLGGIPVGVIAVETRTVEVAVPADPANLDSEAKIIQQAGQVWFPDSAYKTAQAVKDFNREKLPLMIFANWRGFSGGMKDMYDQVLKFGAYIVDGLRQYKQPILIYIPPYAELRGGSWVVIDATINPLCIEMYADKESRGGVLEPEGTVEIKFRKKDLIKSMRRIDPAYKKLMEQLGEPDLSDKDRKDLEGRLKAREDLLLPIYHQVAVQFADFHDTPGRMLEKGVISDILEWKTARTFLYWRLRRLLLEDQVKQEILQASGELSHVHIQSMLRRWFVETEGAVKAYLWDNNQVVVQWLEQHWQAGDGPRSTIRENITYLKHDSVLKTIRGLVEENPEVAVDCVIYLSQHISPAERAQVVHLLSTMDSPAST
Description: The detailed procedure is as follows. […] 10 μL ADP glo reagent was added. […] 20 μL kinase detection reagent was added.

[13] = tested on: Rhizoctonia solani (Rs); assay: Growth inhibition assay of fungal pathogens, Rs; type: cell-based; details: 48 h, mycelial plugs, growth inhibition at 48 hours vs 2% DMSO control, read-out: Concentration at 90% Inhibition Rs
Description: as §4, §5
as §6, with “The spore concentrations and plug sizes were based on growth curves generated at 48 hours for each pathogen.” left out
as §7, with “The blank negative control was used as a background subtraction. Additional visual ratings were performed at both 24 and 48 hours for checking on precipitation and confirming efficacy.” left out

[14] = growth inhibition at 48 hours vs 2% DMSO control
[15] = growth inhibition vs 2% DMSO control at 48 hours

Row | Structure (SMILES) | MIC ([1]; Table 3a) [µg/mL] | MIC ([1]; Table 3b (additional results)) [µg/mL] | IC90 [2, 14] [µg/mL] | IC90 [2, 15] [µg/mL] | IC50 ([3]; Table 2a) [nM] | IC50 ([3]; Table 2b, additional results) [nM] | IC90 [4, 14] [µg/mL] | IC90 [4, 15] [µg/mL] | IC90 [5, 14] [µg/mL] | IC90 [5, 15] [µg/mL] | IC90 [6, 14] [µg/mL] | IC90 [6, 15] [µg/mL] | MIC ([7]; Table 3a) [µg/mL] | MIC ([7]; Table 3b (additional results)) [µg/mL] | IC90 [8, 14] [µg/mL] | IC90 [8, 15] [µg/mL] | MIC ([9]; Table 3a) [µg/mL] | MIC ([9]; Table 3b (additional results)) [µg/mL] | IC90 [10, 14] [µg/mL] | IC90 [11, 14] [µg/mL] | other results
1 | COc1ccc(F)cc1[C@H](Cn1c(=O)n([C@@H](C)C(=O)N2CCCC2)c(=O)c2c(C)c(-n3nccn3)sc21)OC(C)C [Compound I-39, 1-((R)-2-(5-fluoro-2-methoxyphenyl)-2-isopropoxyethyl)-5-methyl-3-((S)-1-oxo-1-(pyrrolidin-1-yl)propan-2-yl)-6-(2H-1,2,3-triazol-2-yl)thieno[2,3-d]pyrimidine-2,4(1H,3H)-dione] | 0.25 to 1 (≈ 0.428 to 1.71 µM) | 0.25 to 1 (≈ 0.428 to 1.71 µM) | 0.08 (≈ 0.137 µM) | 0.08 (≈ 0.137 µM) | 1 to 5 | 1 to 5 | 0.08 (≈ 0.137 µM) | 0.08 (≈ 0.137 µM) | 0.4 (≈ 0.684 µM) | 0.4 (≈ 0.684 µM) | 10 (≈ 17.1 µM) | > 50 | 0.25 to 1 (≈ 0.428 to 1.71 µM) | 0.25 to 1 (≈ 0.428 to 1.71 µM) | > 50 | > 50 | 0.25 to 1 (≈ 0.428 to 1.71 µM) | 1.01 to 2 (≈ 1.73 to 3.42 µM) | 0.08 (≈ 0.137 µM) | 0.08 (≈ 0.137 µM) | IC90 [10, 15]: 0.08 µg/mL (≈ 0.137 µM); IC90 [11, 15]: 0.08 µg/mL (≈ 0.137 µM)
2 | COc1ccc(F)cc1[C@H](Cn1c(=O)n(C(C)C(=O)N2CCCC2)c(=O)c2c(C)c(-n3nccn3)sc21)OC(C)C (stereo partly drawn) [Compound I-40, 1-((R)-2-(5-fluoro-2-methoxyphenyl)-2-isopropoxyethyl)-5-methyl-3-(1-oxo-1-(pyrrolidin-1-yl)propan-2-yl)-6-(2H-1,2,3-triazol-2-yl)thieno[2,3-d]pyrimidine-2,4(1H,3H)-dione] | 0.25 to 1 (≈ 0.428 to 1.71 µM) | 0.25 to 1 (≈ 0.428 to 1.71 µM) | 0.08 (≈ 0.137 µM) | 0.08 (≈ 0.137 µM) | 1 to 5 | 1 to 5 | 0.4 (≈ 0.684 µM) | 0.08 (≈ 0.137 µM) | 0.4 (≈ 0.684 µM) | 0.4 (≈ 0.684 µM) | > 50 | > 50 | 0.25 to 1 (≈ 0.428 to 1.71 µM) | 0.25 to 1 (≈ 0.428 to 1.71 µM) | 10 (≈ 17.1 µM) | > 50 | 0.25 to 1 (≈ 0.428 to 1.71 µM) | 1.01 to 2 (≈ 1.73 to 3.42 µM) | 0.08 (≈ 0.137 µM) | 0.08 (≈ 0.137 µM) | IC90 [10, 15]: 0.08 µg/mL (≈ 0.137 µM); IC90 [11, 15]: 0.08 µg/mL (≈ 0.137 µM)
3 | COc1ccc(F)cc1[C@@H](O)Cn1c(=O)n(C(C)(C)C(=O)N2CCCC2)c(=O)c2c(C)c(-n3nccn3)sc21 [Compound I-177] | – | 1.01 to 2 (≈ 1.81 to 3.59 µM) | 2 (≈ 3.59 µM) | – | 0.4 to 1 | 0.3 to 1 | 2 (≈ 3.59 µM) | – | 2 (≈ 3.59 µM) | – | > 50 | – | – | 1.01 to 2 (≈ 1.81 to 3.59 µM) | > 50 | – | – | 1.01 to 2 (≈ 1.81 to 3.59 µM) | 10 (≈ 18 µM) | 0.4 (≈ 0.719 µM) | IC50 ([12]; Table 2a): 10 to 40 nM; IC50 ([12]; Table 2b, additional results): 10 to 40 nM; IC90 [13]: 0.08 µg/mL (≈ 0.144 µM)

≈ marks a conversion by molar mass, not a printed value. Read-outs that look alike come from different tables or passages of the source.
